Experimental data published in patent publication US4113858A, “Novel compounds, compositions and methods of their use” (St. Luke's Hospital, priority 1976, dated 1978).
Ends that are not written are not given here.

B1: Basic Protein: native protein isolated from bovine myelin known to induce disease (EAE) (protein, UniProt P02687 1-169, looked up)
Myelin basic protein: AAQKRPSQRSKYLASASTMDHARHGFLPRHRDTGILDSLGRFFGSDRGAPKRGSGKDGHHAARTTHYGSLPQKAQGHRPQDENPVVHFFKNIVTPRTPPPSQGKGRGLSLSRFSWGAEGQKPGFGYGGRASDYKSAHKGLKGHDAQGTLSKIFKLGGRDSRSGSPMARR

How the values were obtained:
[1] = system: guinea pigs, rabbits and rats; settings: 10-15 microgram doses
[2] = system: guinea pigs, rabbits and rats; settings: s.c. at dosage levels of 10 μg or more; cited from earlier work

| Molecule | death post onset of signs [1] [days] | time to induction of the disease [1] | induction of disease (EAE), share of mammals [2] |
| --- | --- | --- | --- |
| FSWGAEGQK [Formula (X), H -- Phe -- Ser -- Trp -- Gly -- Ala -- Glu -- Gly -- Gln -- Lys -- OH, reference compound] | 2 to 3 | less than 20 days |  |
| B1 |  |  | at least 50% |
